# Hit rate of the full screen: of about 230,000 compounds, about 3,600 (1.6%) were called active. The inconclusive results got no clear call from the source; some entries with a clear call stand among them for comparison. The call rests on the fitted dose curve; in most records, active means well fitted inhibition curve with a large enough effect (not every such curve was filed as active); inconclusive means small, poorly fitted or top-dose-only effect, or another doubt; inactive means no such curve, though single readings can be large or run the other way. Potencies of inconclusive entries are doubtful fits and often do not repeat.
# Target: Lysine-specific demethylase 4E (Homo sapiens) (UniProt B2RXH2)
# UniProt B2RXH2, sequence (B2RXH2 whole entry, looked up, the tested form may be a part): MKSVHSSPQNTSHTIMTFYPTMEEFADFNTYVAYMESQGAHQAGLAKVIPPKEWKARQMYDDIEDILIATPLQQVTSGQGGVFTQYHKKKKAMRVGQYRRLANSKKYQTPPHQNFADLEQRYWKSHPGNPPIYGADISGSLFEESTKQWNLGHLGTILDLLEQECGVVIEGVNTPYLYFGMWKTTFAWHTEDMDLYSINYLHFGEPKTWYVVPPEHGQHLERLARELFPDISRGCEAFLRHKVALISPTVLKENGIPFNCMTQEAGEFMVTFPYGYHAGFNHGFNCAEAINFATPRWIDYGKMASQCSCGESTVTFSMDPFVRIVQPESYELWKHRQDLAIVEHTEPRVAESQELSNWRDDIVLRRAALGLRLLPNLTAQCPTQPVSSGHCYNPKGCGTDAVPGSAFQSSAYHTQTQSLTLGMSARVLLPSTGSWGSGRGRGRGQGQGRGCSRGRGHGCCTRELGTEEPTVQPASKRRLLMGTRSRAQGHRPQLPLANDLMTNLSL
# Experiment: qHTS Assay for Inhibitors of Human Jumonji Domain Containing 2E (JMJD2E)
# Conditions: JMJD2E catalytic domain, FDH-coupled NADH fluorescence (FDH is formaldehyde dehydrogenase); series mostly up to 57.1 µM
# Further: nearly all actives have a fitted effect of over 50% in size.
# Potency means the concentration at half of the fitted maximal effect; tags describe the fitted curve by direction and shape.
row,Compound,Potency
1,CCOC(=O)Cc1cc(=O)n2[nH]c(C)c(C#N)c2n1,"inconclusive: 31.6 µM [inhibitor, single point]"
2,Cc1ccc(S(=O)(=O)Nc2ncc(C(F)(F)F)cc2Cl)cc1,inactive
3,COCc1cc(C)nc(OCC(=O)N/N=C/c2ccc(O)cc2O)c1C#N,active: 25.1 µM
4,Cc1c(CN(C)CCc2ccccc2)c(=O)n(-c2ccccc2)n1C,"inconclusive: 25.1 µM [inhibitor, single point]"
5,Cc1ccc(-c2cc(C(=O)NCc3cnn(C)c3)c3cc(Br)ccc3n2)cc1,"inconclusive: 22.4 µM [inhibitor, single point]"
6,COc1ccc(NC(=S)Nc2ccc3nccnc3c2)cc1,"inconclusive: 7.94 µM [inhibitor, partial curve]"
7,O=C(Nc1ccc(Cc2ccncc2)cc1)c1cc([N+](=O)[O-])ccc1N1CCOCC1,inactive
8,Cc1nc2[nH]c(=O)c3c(n2n1)NC1=C(C(=O)CC(C)(C)C1)C3c1ccc(F)cc1 (stereo not drawn),"inconclusive: 8.91 µM [inhibitor, partial curve]"
9,CCCn1c(NCc2ccc3c(c2)OCO3)nc2ccccc21,"inconclusive: 3.16 µM [inhibitor, single point]"
10,CCCCN(C(=O)c1ccco1)c1nnc(-c2cc(OC)c(OC)c(OC)c2)s1,"inconclusive: 4.47 µM [inhibitor, single point]"
11,COc1ccccc1C(=O)NC(=O)Nc1nc(-c2ccccc2)cc(C(F)(F)F)n1,"inconclusive: 31.6 µM [inhibitor, single point]"
12,CS(=O)(=O)Nc1cccc(-c2nc(Nc3ccccc3)c3ccccc3n2)c1,"inconclusive: 7.94 µM [inhibitor, partial curve]"
13,CC(=O)C1=C(C)NC(SCC(=O)c2ccc(Cl)c(Cl)c2)=C(C#N)C1c1ccco1 (stereo not drawn),inactive
14,OC1c2ccccc2-c2nc3ccccc3cc21 (stereo not drawn),"inconclusive: 31.6 µM [inhibitor, single point]"
15,Cn1cc([N+](=O)[O-])c(C(=O)Nc2ccc(C(=O)N3CCCCC3)cc2)n1,inactive
16,COc1ccccc1C(CC(N)=O)c1ccco1 (stereo not drawn),inactive
17,CCCC(C)C(=O)Nc1nc(C)c(-c2csc(Nc3cc(Cl)ccc3C)n2)s1 (stereo not drawn),inactive
18,CCOCCCNC(=S)N1CCCN(c2nc3c(C)c(C)ccc3cc2C#N)CC1,"inconclusive: 35.5 µM [inhibitor, single point]"
19,O=C(Nc1cccnc1)c1ccccc1O,"inconclusive: 39.8 µM [inhibitor, single point]"
20,CC[C@H](C)/C=C(C)/C=C/C(=O)Cc1cc(O)c(C)c(O)c1C=O,"inconclusive: 31.6 µM [inhibitor, single point]"
21,CCOC(=O)c1c(NC(=O)Cn2nnc(-c3ccc(Cl)cc3)n2)sc(CC)c1C,"inconclusive: 31.6 µM [inhibitor, single point]"
22,Cc1cc[n+](-c2[nH]c(=O)sc2/C=N/NC([S-])=Nc2ccccc2)cc1,inactive
23,COc1ccc(-c2cc(=O)c3cc(OC)c(OC)cc3[nH]2)cc1,"inconclusive: 31.6 µM [inhibitor, partial curve]"
24,CCCC(=O)NC(c1ccco1)c1cc(Cl)c2cccnc2c1O (stereo not drawn),"inconclusive: 39.8 µM [inhibitor, single point]"

row,Compound,Potency
1,Cc1ccc(S(=O)(=O)CCc2nnc(NC(=O)c3ccccn3)s2)cc1,inactive
2,Clc1ccc(Nc2nc(-c3cccs3)cs2)nc1,"inconclusive: 35.5 µM [inhibitor, single point]"
3,O=C(Nc1cccnc1)c1cc(-c2ccc3c(c2)OCO3)on1,"inconclusive: 39.8 µM [inhibitor, single point]"
4,CC1=NN(C(=O)c2ccc(Cn3cc([N+](=O)[O-])cn3)cc2)C(O)(C(F)(F)F)C1 (stereo not drawn),inactive
5,Nc1ccc(S(N)(=O)=O)cc1N,active: 7.94 µM
6,COc1ccc(Br)c2c1C(=O)CC2,"inconclusive: 39.8 µM [inhibitor, single point]"
7,CCOc1cc(/C=N/NC(=O)COc2cccc(C)c2)ccc1OC(=O)c1cccs1,inactive
8,CC1(N(O)/C=C2\C=CC=CC2=O)CCCCC1=O (stereo not drawn),inactive
9,Cc1cccc(NC(=O)/C=C/c2cccs2)n1,inactive
10,O=C(NCc1ccccc1)C1=C[C@H](c2ccc(C(F)(F)F)cc2)C[C@H](OCc2ccc(CO)cc2)O1,"inconclusive: 39.8 µM [inhibitor, single point]"
11,CCOc1ccc2[nH]c(=O)c(C(c3nnnn3C3CCCCC3)N3CCN(C)CC3)cc2c1 (stereo not drawn),"inconclusive: 20 µM [inhibitor, partial curve]"
12,COc1ccc(C2=NN(C(=O)c3cccs3)C(c3ccccc3O)C2)cc1 (stereo not drawn),"inconclusive: 35.5 µM [inhibitor, partial curve]"
13,N#CC(=C=[N-])c1nc2ccccc2nc1-[n+]1cccc(NC(=O)c2ccccc2)c1,inactive
14,CCO/C([O-])=N/c1sn[n+](C)c1C,inactive
15,COc1cc(/C=C/C(=O)OCC(=O)N2CC3(C)CC2CC(C)(C)C3)ccc1O (stereo not drawn),"inconclusive: 28.2 µM [inhibitor, single point]"
16,N#Cc1ccc(N=c2ssnc2Cl)cc1,"inconclusive: 39.8 µM [inhibitor, single point]"
17,CCCCNC(=S)Nc1cccc2cnccc12,inactive
18,COCCNC(=O)c1ccc(C)c(S(=O)(=O)Nc2ccc(C)cc2)c1,inactive
19,O=C(NC(=S)Nc1ccc(Cc2ccncc2)cc1)c1ccccc1Cl,inactive
20,CC(=O)Nc1ccc2nc(C)n(Cc3ccc(Cl)cc3)c(=O)c2c1,inactive
21,c1ccc(-c2csc(N3CCCCCC3)n2)cc1,inactive
22,CN(CCOC(=O)c1ccc2c(c1)OCCO2)C(C)(C)C,"inconclusive: 39.8 µM [inhibitor, single point]"
23,COCCCNc1nc2ccccc2nc1NS(=O)(=O)c1ccc(C)cc1C,"inconclusive: 28.2 µM [inhibitor, partial curve]"
24,O=C(CSCC(=O)N1CCCCC1)Nc1nc(-c2ccccc2)c(-c2ccccc2)s1,"inconclusive: 31.6 µM [inhibitor, single point]"
